Measurements taken from the supplement of paper PMC5499739.
In all, about 16,000 sequences were measured (“Z-score”: median about -0.37, highest 2% from about 3.1 on). Some of the results follow.

Tested on: RBM10 RRM1-ZnF-RRM2 (GST-tagged construct)
Experiment: RNAcompete 7-mer binding Z-score; higher = stronger binding preference
Procedure: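 RNAcompete: 20 pmol GST-tagged RBM10 RNA-binding constructs were incubated with a designed RNA pool of about 241,000 sequences up to 41 nt (1.5 nmol) on glutathione beads for 30 min at 4 °C and washed. Bound RNAs were identified by microarray hybridisation. Each RNA 7-mer is scored by a one-sided Z-score of its enrichment, computed over probes that contain the 7-mer within longer pool sequences.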

| Sequence | RNAcompete 7-mer binding Z-score |
| --- | --- |
| AUGACCU | -0.788 |
| GAUGUAU | 0.275 |
| AAAAGAA | 0.0641 |
| UGCCAUU | -0.923 |
| AGGCUGU | -0.326 |
| UUGAACC | -0.588 |
| CACUCCU | -0.828 |
| GUCGGCG | 0.548 |
| CGCGUCG | -0.125 |
| AGUAUCC | -0.573 |
| CGCCAAC | -0.661 |
| AUGUGAA | 0.629 |
| ACAUCUC | -0.872 |
| GAGUUCC | -0.537 |
| ACGAUCC | -0.701 |
| CUAGGAC | 0.25 |
| GGAAGUA | 1.5 |
| AUACUGA | -0.202 |
| GCCAUUA | -0.588 |
| GAUUAAA | -0.198 |
| AGCCACG | -0.125 |
| AGUGCUU | -0.592 |
| GCAGGGC | 1.51 |

| Sequence | RNAcompete 7-mer binding Z-score |
| --- | --- |
| UCCCUUU | -0.959 |
| UGACUGU | -0.708 |
| UACGGUA | 0.763 |
| AGGACUC | -0.373 |
| CUGGCCC | -0.497 |
| GGCUACG | 0.523 |
| UUGAUGC | -0.544 |
| CCCAGCC | -0.679 |
| GGUCGUG | 1.32 |
| CUCCGUC | -0.894 |
| UGAAUAC | -0.49 |
| CGCCAUA | -0.632 |
| CUUCCAU | -0.799 |
| CUUUUUU | -0.85 |
| AACACGA | -0.231 |
| AGAGGAC | 0.632 |
| CAAUGUU | -0.504 |
| UGAACAU | -0.198 |
| GUUGCGC | 0.0204 |
| CACAUAA | -0.672 |
| UUCCUCU | -0.734 |
| UGCGACA | -0.213 |
| UCUGAGG | -0.122 |

| Sequence | RNAcompete 7-mer binding Z-score |
| --- | --- |
| GAUUACC | -0.537 |
| GACCUGG | -0.431 |
| AUUUAAC | -0.694 |
| GACGUCG | -0.286 |
| ACAACGG | 1.03 |
| CCCCUGU | -0.646 |
| ACUUUAA | -0.883 |
| CCCUCGU | -0.741 |
| GCGCCUA | -0.828 |
| ACCGCUG | -0.635 |
| AGGGGCA | 2.36 |
| GCAUGAA | 0.101 |
| GUGUUUA | 0.0422 |
| UAGAGUC | -0.00148 |
| UAUGACA | -0.267 |
| UUGGAGG | 2.78 |
| UUGCAAU | -0.577 |
| CUAAAGA | -0.315 |
| UGCACCC | -0.664 |
| GAUUCCA | -0.519 |
| UGUUCCG | -0.573 |
| UAACAGC | -0.224 |
| AGAGAGA | 0.428 |

| Sequence | RNAcompete 7-mer binding Z-score |
| --- | --- |
| UUCGCAC | -0.646 |
| UCUCCCG | -0.617 |
| GAAUAUU | -0.253 |
| GGAUUAU | 0.683 |
| AUAGUGG | 1.69 |
| CACUCAA | -0.624 |
| GUACUAC | -0.344 |
| UGGACGA | 1.66 |
| UGAUUUG | -0.417 |
| AUACUAG | -0.307 |
| GCUUUCC | -0.817 |
| UCCGAGU | -0.548 |
| CGUUAUC | -0.817 |
| GACACUA | -0.307 |
| ACGAUAU | -0.275 |
| UUACAGA | -0.322 |
| AUGUCGC | -0.573 |
| GAUCUGC | -0.828 |
| GAAGCUA | -0.0707 |
| CAUUUAC | -0.821 |
| GUUUCGA | -0.216 |
| GCUCAGG | 0.301 |
| ACGUAUC | -0.439 |

| Sequence | RNAcompete 7-mer binding Z-score |
| --- | --- |
| GAGACUA | -0.278 |
| GCCUCCC | -0.741 |
| ACAAUUG | -0.198 |
| CACAACC | -0.5 |
| UAGGAAU | 1.14 |
| UCUCCGC | -0.704 |
| CUCGACG | -0.555 |
| CCUGAUU | -0.941 |
| CUGUGAA | -0.366 |
| GCCUUAU | -0.916 |
| CCUUGGC | -0.653 |
| ACUGCGG | 0.253 |
| GAUCAGA | 0.494 |
| AACCACA | -0.275 |
| UAGAACC | -0.497 |
| GUCACUU | -0.726 |
| CUCAUAC | -0.712 |
| UUAGCGA | 0.0459 |
| CUGCAUG | -0.548 |
| AGUGUUG | 0.661 |
| ACCUACA | -0.814 |
| CCCAAUC | -0.712 |
| AACUCGG | -0.26 |

| Sequence | RNAcompete 7-mer binding Z-score |
| --- | --- |
| GGAUAGU | 1.63 |
| GGUUUAU | 0.137 |
| GGGAUAU | 2.85 |
| UGUUACU | -0.679 |
| GGAACGA | 1.75 |
| CAGAACG | -0.0525 |
| CUUCAGU | -0.493 |
| UCACGAG | -0.26 |
| AUCCGCU | -0.828 |
| UAAUGGG | 2.89 |
| GGCCCAC | -0.806 |
| CCUUACG | -0.846 |
| UAUACAG | -0.118 |
| GCCUCUU | -1.01 |
| ACAGUGC | 0.275 |
| AUGGAUC | 0.756 |
| CUGCGAC | -0.657 |
| CACCCUU | -0.934 |
| AGGUAUG | 1.95 |
| UGAUCAG | 0.0568 |
| AGAGGCG | 0.658 |
| UUUCUAU | -0.763 |
| CUACUAG | -0.584 |

| Sequence | RNAcompete 7-mer binding Z-score |
| --- | --- |
| UCCACUC | -0.894 |
| UCGGCCC | -0.785 |
| UUGGAGC | 1.01 |
| UCUGACA | -0.69 |
| CACUGAA | -0.377 |
| CUCACGU | -0.701 |
| UACUCGG | -0.391 |
| CCUGCAA | -0.73 |
| AUAUGUG | 0.508 |
| CUUAGGU | -0.388 |
| CGCGGUC | -0.238 |
| UCGCACA | -0.475 |
| UUGAAAG | 0.192 |
| UAUCUAU | -0.537 |
| GUAGCAA | 0.603 |
| GAUGUGU | 0.501 |
| CGCUGCC | -0.621 |
| CAAAUGA | -0.191 |
| CACCACC | -0.475 |
| CCCGUCC | -0.737 |
| UUGAUCG | -0.307 |
| UUCAUAA | -0.686 |
| UGCUCAA | -0.639 |

| Sequence | RNAcompete 7-mer binding Z-score |
| --- | --- |
| UAUUGAU | -0.362 |
| GGAUUCA | 0.727 |
| AUUAACA | -0.304 |
| UAACCAC | -0.457 |
| AAGGCUC | 0.119 |
| GUCUUUC | -0.592 |
| UGUUUCC | -0.697 |
| UAACUAC | -0.551 |
| CCUUAAC | -0.861 |
| UACAUAC | -0.333 |
| CAGUUGA | 0.0167 |
| AAACUCA | -0.639 |
| GAAAUUC | -0.38 |
| UCCCAUG | -0.377 |
| AGUUCUU | -0.719 |
| GGGAAGU | 2.76 |
| CAUACCA | -0.369 |
| UCGUUCU | -0.595 |
| CUCUACC | -0.912 |
| UCUAGUA | -0.588 |
| UGGCAGG | 1.88 |
| UGACUCA | -0.453 |
| UUUAGCC | -0.879 |
